# B1: No. 7 protein (Fc fusion)
# chain: QVQLVQSGAEVKKPGSSVKVSCKASGYSFTDYHIHWVRQAPGQGLEWMGVINPMYGTTDYNQRFKGRVTITADESTSTAYMELSSLRSEDTAVYYCARYDYFTGTGVYWGQGTLVTVSSGGGGSGGGGSGGGGSDIVMTQTPLSLSVTPGQPASISCRSSRSLVHSRGNTYLHWYLQKPGQSPQLLIYKVSNRFIGVPDRFSGSGSGTDFTLKISRVEAEDVGVYYCSQSTHLPFTFGQGTKLEIKRT[human IgG4 Fc with S228P (EU numbers) not written out]GGGGSGGGGSGGGGSGGGGSREKRDSVCPQGKYIHPQNNSICCTKCHKGTYLYNDCPGPGQDTDCRECESGSFTASENHLRHCLSCSKCRKEMGQVEISSCTVDRDTVCGCRKNQYRHYWSENLFQCFNCSLCLNGTVHLSCQEKQNTVCTCHAGFFLRENECVSCSNCKKSLECTKLCL
# modifications: Disulfide-linked homodimer through the IgG4 hinge; one chain given. Glycosylated.
# notes: Odd-numbered construct, contains sTNFRI; expressed in Expi293; used after protein A purification only; also called protein of No. 7
# B2: No. 3 protein (Fc fusion)
# heavy: QVQLVQSGAEVKKPGSSVKVSCKASGYSFTDYHIHWVRQAPGQGLEWMGVINPMYGTTDYNQRFKGRVTITADESTSTAYMELSSLRSEDTAVYYCARYDYFTGTGVYWGQGTLVTVSSASTKGPSVFPLAPCSRSTSESTAALGCLVKDYFPEPVTVSWNSGALTSGVHTFPAVLQSSGLYSLSSVVTVPSSSLGTKTYTCNVDHKPSNTKVDKRV[human IgG4 Fc with S228P (EU numbers) not written out]GGGGSGGGGSGGGGSGGGGSREKRDSVCPQGKYIHPQNNSICCTKCHKGTYLYNDCPGPGQDTDCRECESGSFTASENHLRHCLSCSKCRKEMGQVEISSCTVDRDTVCGCRKNQYRHYWSENLFQCFNCSLCLNGTVHLSCQEKQNTVCTCHAGFFLRENECVSCSNCKKSLECTKLCL
# light: DIVMTQTPLSLSVTPGQPASISCRSSRSLVHSRGNTYLHWYLQKPGQSPQLLIYKVSNRFIGVPDRFSGSGSGTDFTLKISRVEAEDVGVYYCSQSTHLPFTFGQGTKLEIKRTVAAPSVFIFPPSDEQLKSGTASVVCLLNNFYPREAKVQWKVDNALQSGNSQESVTEQDSKDSTYSLSSTLTLSKADYEKHKVYACEVTHQGLSSPVTKSFNRGEC
# modifications: IgG-like tetramer of two heavy fusion chains and two light chains; one of each given. Glycosylated.
# notes: Odd-numbered construct, contains sTNFRI; expressed in Expi293; also called protein of No. 3
# B3: No. 4 protein (Fc fusion)
# heavy: QVQLVQSGAEVKKPGSSVKVSCKASGYSFTDYHIHWVRQAPGQGLEWMGVINPMYGTTDYNQRFKGRVTITADESTSTAYMELSSLRSEDTAVYYCARYDYFTGTGVYWGQGTLVTVSSASTKGPSVFPLAPCSRSTSESTAALGCLVKDYFPEPVTVSWNSGALTSGVHTFPAVLQSSGLYSLSSVVTVPSSSLGTKTYTCNVDHKPSNTKVDKRV[human IgG4 Fc with S228P (EU numbers) not written out]GGGGSGGGGSGGGGSGGGGSLPAQVAFTPYAPEPGSTCRLREYYDQTAQMCCSKCSPGQHAKVFCTKTSDTVCDSCEDSTYTQLWNWVPECLSCGSRCSSDQVETQACTREQNRICTCRPGWYCALSKQEGCRLCAPLRKCRPGFGVARPGTETSDVVCKPCAPGTFSNTTSSTDICRPHQICNVVAIPGNASMDAVCTSTSPTRSMAPGAVHLPQPVSTRSQHTQPTPEPSTAPSTSFLLPMGPSPPAEGSTGD
# light: B2 light
# modifications: IgG-like tetramer of two heavy fusion chains and two light chains; one of each given. Glycosylated.
# notes: Even-numbered construct, contains sTNFRII; expressed in Expi293; also called protein of No. 4
# B4: No. 5 protein (Fc fusion)
# chain: REKRDSVCPQGKYIHPQNNSICCTKCHKGTYLYNDCPGPGQDTDCRECESGSFTASENHLRHCLSCSKCRKEMGQVEISSCTVDRDTVCGCRKNQYRHYWSENLFQCFNCSLCLNGTVHLSCQEKQNTVCTCHAGFFLRENECVSCSNCKKSLECTKLCL[human IgG4 Fc with S228P (EU numbers) not written out]GGGGSGGGGSGGGGSGGGGSQVQLVQSGAEVKKPGSSVKVSCKASGYSFTDYHIHWVRQAPGQGLEWMGVINPMYGTTDYNQRFKGRVTITADESTSTAYMELSSLRSEDTAVYYCARYDYFTGTGVYWGQGTLVTVSSGGGGSGGGGSGGGGSDIVMTQTPLSLSVTPGQPASISCRSSRSLVHSRGNTYLHWYLQKPGQSPQLLIYKVSNRFIGVPDRFSGSGSGTDFTLKISRVEAEDVGVYYCSQSTHLPFTFGQGTKLEIKRT
# notes: also called No. 5 fusion protein; protein of No. 5
# Target: T1, TNFα (human, UniProt P01375 partial chain)
# T1 construct: also called hTNF-α
# Assay: SPR (Biacore T200), protein captured on protein A chip, TNFα as analyte, multi-cycle
Kd,koff,kon,Binder
0.119 nM,0.000259 s⁻¹,2.18e+06 M⁻¹ s⁻¹,B1
0.0381 nM,0.000123 s⁻¹,3.23e+06 M⁻¹ s⁻¹,B2
0.0535 nM,0.000274 s⁻¹,5.12e+06 M⁻¹ s⁻¹,B3
0.0357 nM,7.82e-05 s⁻¹,2.19e+06 M⁻¹ s⁻¹,B4

# Target: T2, IL-17A (human, UniProt Q16552 24-155)
# T2 construct: also called hIL-17A
# Assay: SPR (Biacore T200), protein captured on protein A chip, IL-17A as analyte, multi-cycle
Kd,koff,kon,Binder
0.00627 nM,6.39e-05 s⁻¹,1.02e+07 M⁻¹ s⁻¹,B1
0.00868 nM,9.57e-05 s⁻¹,1.1e+07 M⁻¹ s⁻¹,B2
0.00717 nM,7.74e-05 s⁻¹,1.08e+07 M⁻¹ s⁻¹,B3
0.00637 nM,3.28e-05 s⁻¹,5.16e+06 M⁻¹ s⁻¹,B4

# Target: T1, TNFα
# Assay: SPR (Biacore T200), protein A capture, first saturated with IL-17A, then TNFα as analyte
# T1 sequence (P01375 77-233 limits assumed): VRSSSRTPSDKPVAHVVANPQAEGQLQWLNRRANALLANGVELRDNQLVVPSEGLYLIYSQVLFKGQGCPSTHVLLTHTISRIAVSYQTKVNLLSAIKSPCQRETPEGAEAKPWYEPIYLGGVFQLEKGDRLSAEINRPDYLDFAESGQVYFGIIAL
Kd,koff,kon,Binder
0.0776 nM,0.000505 s⁻¹,6.52e+06 M⁻¹ s⁻¹,B1
0.0182 nM,0.000103 s⁻¹,5.7e+06 M⁻¹ s⁻¹,B2
0.0615 nM,0.000592 s⁻¹,9.62e+06 M⁻¹ s⁻¹,B3
0.0171 nM,9.49e-05 s⁻¹,5.54e+06 M⁻¹ s⁻¹,B4

# Target: T2, IL-17A
# Assay: SPR (Biacore T200), protein A capture, first saturated with TNFα, then IL-17A as analyte
# T2 sequence (Q16552 24-155 limits assumed): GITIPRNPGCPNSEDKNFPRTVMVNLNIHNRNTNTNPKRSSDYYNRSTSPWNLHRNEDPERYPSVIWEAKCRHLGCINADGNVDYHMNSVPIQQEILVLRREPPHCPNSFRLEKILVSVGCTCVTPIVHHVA
Kd,koff,kon,Binder
0.00821 nM,4.76e-05 s⁻¹,5.8e+06 M⁻¹ s⁻¹,B1
0.0059 nM,5.09e-05 s⁻¹,8.64e+06 M⁻¹ s⁻¹,B2
0.00738 nM,6.21e-05 s⁻¹,8.41e+06 M⁻¹ s⁻¹,B3
0.00716 nM,2.6e-05 s⁻¹,3.64e+06 M⁻¹ s⁻¹,B4
